Here are results for 54 sequences from article PMC7819943, “Rice protein-binding microarrays: a tool to detect cis-acting elements near promoter regions in rice”.

Some of the results follow.

The target in this experiment is T1, OsWOX13 (Oryza sativa, UniProt Q5QMM3 1-267).
T1 sequence: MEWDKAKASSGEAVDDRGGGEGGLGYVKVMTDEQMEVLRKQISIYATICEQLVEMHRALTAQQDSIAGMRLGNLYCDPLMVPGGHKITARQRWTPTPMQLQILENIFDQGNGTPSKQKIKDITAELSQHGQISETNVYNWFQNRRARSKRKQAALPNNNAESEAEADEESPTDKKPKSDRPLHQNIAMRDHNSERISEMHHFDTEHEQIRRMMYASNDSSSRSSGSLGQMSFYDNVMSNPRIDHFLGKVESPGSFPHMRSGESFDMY
The experiment can be described thus: protein-binding microarray (RPBM); PBS, 2% BSA, 51.3 ng/ul salmon testes DNA, 50 uM zinc acetate, 200 nM TF, 25 C, 1 h; high values mean tight binding. To be noted: protein: recombinant; tags: N-terminal polyhistidine and DsRed monomer fusion (pET32a); label: CyDye5-dUTP incorporated in the synthesized complementary strand; 3' TTTTT single-stranded linker to array surface; dsDNA, one strand shown. In short, it runs like this: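 Ni–NTA purification followed expression in E. coli BL21-CodonPlus of transcription factors fused N-terminally to a polyhistidine tag and DsRed. At 200 nM in PBS with 2% BSA, salmon testes DNA and 50 µM zinc acetate, the protein was incubated for 1 h at 25 °C with a custom Agilent array that had been primer-extended with Cy5-dUTP and blocked with 2% BSA. After washing, the array was read on an Axon 4000B scanner. The binding signal is per-feature fluorescence intensity in arbitrary units.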
With “GATATGACTGAAAAGTTATGTGTGTATGACAGGTTGATGTCGGAGTCACCTAGTGCAG”, the binding signal is 6990 fluorescence intensity (a.u.).

On to “AAAATGATTTATCCACCTCACTAGAAATTTCTCTCTTAAACGGAGTCACCTAGTGCAG”, for which the binding signal is 7700 fluorescence intensity (a.u.).

Turning to “GTGTAAATTAAATTGTTCCAACTAATTTTATTTACAGATGCGGAGTCACCTAGTGCAG”, the binding signal was 33700 fluorescence intensity (a.u.).

Turning to “CAGTGATTGATTCGTAACTAATAAATCGAACTACTGCGCGCGGAGTCACCTAGTGCAG”, the binding signal was 40800 fluorescence intensity (a.u.).

As to “GTGCAATTAGTGATATATATCACCAATAACTACTACAAGCCGGAGTCACCTAGTGCAG”, the binding signal is 12500 fluorescence intensity (a.u.).

On to “CTTAACTAAATTTGAGTATATGGTAGTTTCACATTGACATCGGAGTCACCTAGTGCAG”, for which the binding signal was 28400 fluorescence intensity (a.u.).

Regarding “CTCCCGTCTCGGCCAATCATAGCGCGCCATTTCCATCCCACGGAGTCACCTAGTGCAG”, the binding signal was 7140 fluorescence intensity (a.u.).

As to “CAATGATTGGTACCGGACCTGATCCCGTCGTAATCAGCGGCGGAGTCACCTAGTGCAG”, the binding signal was 51800 fluorescence intensity (a.u.).

In the case of “CAGTTCAATCAAACGGTCATTCCCGTGTTTTCCTGCGTTTCGGAGTCACCTAGTGCAG”, the binding signal is 12900 fluorescence intensity (a.u.).

On to “TCAAATTGGTACAACAGCGACCTTCACAGAACTTGGGAAACGGAGTCACCTAGTGCAG”, for which the binding signal was 8760 fluorescence intensity (a.u.).

For the sequence “ATCAAATTATGCTCATTGGGGAAGGGAGAATCATGGAGATCGGAGTCACCTAGTGCAG”, the binding signal was 8890 fluorescence intensity (a.u.).

Turning to “GGTCAAATTAAGTTGAATACCGGTAAACATTGGTGATACACGGAGTCACCTAGTGCAG”, the binding signal was 4480 fluorescence intensity (a.u.).

On to “ACCCTATGACTAATGTGATTTGGTCCCAAAGTTTGCCCTCCGGAGTCACCTAGTGCAG”, for which the binding signal was 12800 fluorescence intensity (a.u.).

As to “CTTTTAATTACTCCGATTTCGTAGCGCATATCGACTCTCCCGGAGTCACCTAGTGCAG”, the binding signal was 7460 fluorescence intensity (a.u.).

With “AGCCAGTTAATTATGACATCACAACCCATCTAAACACATACGGAGTCACCTAGTGCAG”, the binding signal was 18900 fluorescence intensity (a.u.).

Regarding “TTCTAATTAATCACGCGTTAATGGACCGCTCCGTTTTCCGCGGAGTCACCTAGTGCAG”, the binding signal was 42300 fluorescence intensity (a.u.).

With “AGCCTCCTAATTGGGGTTTGTTGACGAAAAGCGCATCCTTCGGAGTCACCTAGTGCAG”, the binding signal was 10600 fluorescence intensity (a.u.).

Regarding “TCCTATATGATTATTAACACAACCCAAATATCCAATCCATCGGAGTCACCTAGTGCAG”, the binding signal is 11000 fluorescence intensity (a.u.).

On to “TATAAATTGATGAGTGACTACCAGGATATACATTCAACAACGGAGTCACCTAGTGCAG”, for which the binding signal was 39300 fluorescence intensity (a.u.).

On to “GTTTTATGATAAGTACTGATTAATTCTCGCGTTTCATTATCGGAGTCACCTAGTGCAG”, for which the binding signal is 8030 fluorescence intensity (a.u.).

Consider “GAACTTAATTATCTACCACTTGCTGGGTAGCTAGTGAGCGCGGAGTCACCTAGTGCAG”, for which the binding signal was 29600 fluorescence intensity (a.u.).

For the sequence “GGGTGGGGTGGGCCTGGGCTGATGCATGTTTGGCGCTTAGCGGAGTCACCTAGTGCAG”, the binding signal was 4520 fluorescence intensity (a.u.).

Take “AACACGTATTAATTAATTAGACACTGGAAATCGTTCTGCACGGAGTCACCTAGTGCAG”: the binding signal was 38000 fluorescence intensity (a.u.).

In the case of “TAATTCTAATTGTTATAAAATGTTACTCCCTCCGTATTTTCGGAGTCACCTAGTGCAG”, the binding signal was 6460 fluorescence intensity (a.u.).

As to “ATATATATGATTGGTACATACAGCCATACACAGGACACCCCGGAGTCACCTAGTGCAG”, the binding signal is 25800 fluorescence intensity (a.u.).

With “CATAAATCTGATTGGAGTGTGGAAAATCGTGCATTTAAATCGGAGTCACCTAGTGCAG”, the binding signal is 18800 fluorescence intensity (a.u.).

On to “TTCAGAAATGCTGGAAGATGATTGAGGAAATCAGGAAATTCGGAGTCACCTAGTGCAG”, for which the binding signal was 5150 fluorescence intensity (a.u.).

Take “GGAGATTACAGGCCTGAATACATGCACAATGATTTTCTCTCGGAGTCACCTAGTGCAG”: the binding signal is 3730 fluorescence intensity (a.u.).

For “TTTTGTGTAATTGGCTGTGGACACTCGAGACAATATCTTACGGAGTCACCTAGTGCAG”, the binding signal was 13300 fluorescence intensity (a.u.).

“AATTATTTGTTCTGTATTGTTTTGTTTTACTATATCTTCTCGGAGTCACCTAGTGCAG”: the binding signal is 3310 fluorescence intensity (a.u.).

With “ACTAATTTAGTATTATAAATATTACTATATTTGTCTATAACGGAGTCACCTAGTGCAG”, the binding signal is 16400 fluorescence intensity (a.u.).

For the sequence “CAATGAACTAATATAACAGGTCAATTAATCCGCCATAGATCGGAGTCACCTAGTGCAG”, the binding signal was 3700 fluorescence intensity (a.u.).

“AAGATTAGGTTGACAGTAAAAGAATGTGGTTCTGACAGGCCGGAGTCACCTAGTGCAG”: the binding signal is 6350 fluorescence intensity (a.u.).

For “CTAGTCGTTAATTAGCAATTTCATGACAATCCTGGACGGACGGAGTCACCTAGTGCAG”, the binding signal was 39700 fluorescence intensity (a.u.).

On to “GCATAATTGGAAGTCTAAACACCCATAAATTTCTGCCTCCCGGAGTCACCTAGTGCAG”, for which the binding signal was 45200 fluorescence intensity (a.u.).

Regarding “TGGGAATAATTAGTTAATCCTTTCCAGCAACTTTAAATCACGGAGTCACCTAGTGCAG”, the binding signal was 5320 fluorescence intensity (a.u.).

As to “GCTAATTGCCAAAGCAGCCACATGGATTGACATAGCTTCTCGGAGTCACCTAGTGCAG”, the binding signal was 36800 fluorescence intensity (a.u.).

Regarding “ACCTAACCCCACCCAATCACCCCAACCGAACCCCGCACGGCGGAGTCACCTAGTGCAG”, the binding signal was 3460 fluorescence intensity (a.u.).

With “GATAATGGCGCATCAGACATGGAAGAATATGTAGCGTTTGCGGAGTCACCTAGTGCAG”, the binding signal is 3260 fluorescence intensity (a.u.).

Consider “ATCCAATCATACTCCAAGATCTGAAGAGAAGGAGGGATTGCGGAGTCACCTAGTGCAG”, for which the binding signal is 11900 fluorescence intensity (a.u.).

Regarding “TGTTAAATTATATCTAAGGAAACCGGTTTTGATTTCCTTCCGGAGTCACCTAGTGCAG”, the binding signal was 11100 fluorescence intensity (a.u.).

Regarding “CTAAACGCATATAATAAATTCATCAATCTCTCGAATGTGCCGGAGTCACCTAGTGCAG”, the binding signal was 3750 fluorescence intensity (a.u.).

Consider “GTGTAATTACATGTAGTGTAACTATATTATACATTTGAAACGGAGTCACCTAGTGCAG”, for which the binding signal was 6600 fluorescence intensity (a.u.).

With “TCAGGCTAACCATTCAATCATGACGTAAGAATATAACAAACGGAGTCACCTAGTGCAG”, the binding signal was 6850 fluorescence intensity (a.u.).

For the sequence “TCGTCAATCTTAAAATATATCGGTCCAATCTTTGAAAGATCGGAGTCACCTAGTGCAG”, the binding signal was 4030 fluorescence intensity (a.u.).

Take “AGTTACTTTGTCCAATTAATTTGCTTGTCTCGACGAGAGACGGAGTCACCTAGTGCAG”: the binding signal was 10600 fluorescence intensity (a.u.).

For the sequence “AATAATTGACGATGACTATACACGCACAATGCATCCCGGCCGGAGTCACCTAGTGCAG”, the binding signal is 46600 fluorescence intensity (a.u.).

“GTGCTTAAATGATTAATCTATGGTCCAAATTATATTTCTCCGGAGTCACCTAGTGCAG”: the binding signal is 23100 fluorescence intensity (a.u.).

Take “ATGTATAATCATGTATGTGGATAATTGTAGCCAACTCGTACGGAGTCACCTAGTGCAG”: the binding signal is 8280 fluorescence intensity (a.u.).

In the case of “GTTGACAGTCAGTGGATTCAGAATTTCAGATTGACCTAAACGGAGTCACCTAGTGCAG”, the binding signal was 7030 fluorescence intensity (a.u.).

Turning to “CATAGGTGATCAAATCAATCAGTTGGGTCTGTTGGGTGGGCGGAGTCACCTAGTGCAG”, the binding signal is 24100 fluorescence intensity (a.u.).

Consider “CCAAAATTTGATAGAATCTATTCCGAAGCGTCCAATGTTTCGGAGTCACCTAGTGCAG”, for which the binding signal is 33400 fluorescence intensity (a.u.).

As to “GTGATTATGATGAATAAGAGCAATGACCGGCTTCGGCCAACGGAGTCACCTAGTGCAG”, the binding signal is 7120 fluorescence intensity (a.u.).

With “ATCCCCAAAACTGATTAGAACACGTCGTGTATCGATGGGGCGGAGTCACCTAGTGCAG”, the binding signal is 10500 fluorescence intensity (a.u.).
